Measured values: PMC3169550
Substitutions are numbered along the chain they refer to. These are yes or no findings as the source states them, for the method shown. In cells and extracts the contact can be indirect. Some entries that bind do so weakly or less than the wild type. Tags and fused reporters may be left off the sequences shown.

Chains of the proteins cited; added tags and fusions are not shown.
UniProt Q9QYP6: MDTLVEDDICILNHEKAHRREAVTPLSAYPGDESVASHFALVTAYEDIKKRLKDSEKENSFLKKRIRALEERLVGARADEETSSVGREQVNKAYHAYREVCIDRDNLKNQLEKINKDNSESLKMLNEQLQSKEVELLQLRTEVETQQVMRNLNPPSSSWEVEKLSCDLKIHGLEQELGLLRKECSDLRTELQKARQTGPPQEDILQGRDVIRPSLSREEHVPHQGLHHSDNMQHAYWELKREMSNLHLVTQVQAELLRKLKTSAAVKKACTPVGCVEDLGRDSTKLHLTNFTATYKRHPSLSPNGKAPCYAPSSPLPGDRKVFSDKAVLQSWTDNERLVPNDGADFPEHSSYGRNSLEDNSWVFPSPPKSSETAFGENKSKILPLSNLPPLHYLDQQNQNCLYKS
UniProt A2A9T0: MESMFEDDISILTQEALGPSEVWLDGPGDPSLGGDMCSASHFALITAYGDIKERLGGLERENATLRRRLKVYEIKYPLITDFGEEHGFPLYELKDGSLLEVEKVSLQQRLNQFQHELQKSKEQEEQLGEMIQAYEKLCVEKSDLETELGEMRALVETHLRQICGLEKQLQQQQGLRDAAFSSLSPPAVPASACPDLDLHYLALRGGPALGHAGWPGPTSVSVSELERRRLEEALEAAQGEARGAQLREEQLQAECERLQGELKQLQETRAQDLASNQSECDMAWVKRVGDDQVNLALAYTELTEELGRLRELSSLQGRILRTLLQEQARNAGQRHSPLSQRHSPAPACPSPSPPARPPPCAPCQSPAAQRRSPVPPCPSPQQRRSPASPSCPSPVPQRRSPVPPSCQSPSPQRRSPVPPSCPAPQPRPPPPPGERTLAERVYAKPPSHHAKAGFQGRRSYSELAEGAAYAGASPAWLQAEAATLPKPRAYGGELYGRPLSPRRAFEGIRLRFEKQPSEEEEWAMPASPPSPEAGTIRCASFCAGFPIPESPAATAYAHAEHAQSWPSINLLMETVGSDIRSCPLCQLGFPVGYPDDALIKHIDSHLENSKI

Assays:
Experiment in all cases: co-IP; Myc-tagged TBK1 constructs coexpressed with V5-tagged adaptors in HEK293 cells; Frackelton buffer (10 mM Tris/HCl pH 7.5, 50 mM NaCl, 1% Triton X-100); anti-Myc agarose or anti-V5 agarose, 2 h at 4°C; immunoblotting with anti-Myc and anti-V5
[1] = target: T1, Myc-tagged TBK1 L711A (murine) (UniProt Q9WUN2)
T1 sequence: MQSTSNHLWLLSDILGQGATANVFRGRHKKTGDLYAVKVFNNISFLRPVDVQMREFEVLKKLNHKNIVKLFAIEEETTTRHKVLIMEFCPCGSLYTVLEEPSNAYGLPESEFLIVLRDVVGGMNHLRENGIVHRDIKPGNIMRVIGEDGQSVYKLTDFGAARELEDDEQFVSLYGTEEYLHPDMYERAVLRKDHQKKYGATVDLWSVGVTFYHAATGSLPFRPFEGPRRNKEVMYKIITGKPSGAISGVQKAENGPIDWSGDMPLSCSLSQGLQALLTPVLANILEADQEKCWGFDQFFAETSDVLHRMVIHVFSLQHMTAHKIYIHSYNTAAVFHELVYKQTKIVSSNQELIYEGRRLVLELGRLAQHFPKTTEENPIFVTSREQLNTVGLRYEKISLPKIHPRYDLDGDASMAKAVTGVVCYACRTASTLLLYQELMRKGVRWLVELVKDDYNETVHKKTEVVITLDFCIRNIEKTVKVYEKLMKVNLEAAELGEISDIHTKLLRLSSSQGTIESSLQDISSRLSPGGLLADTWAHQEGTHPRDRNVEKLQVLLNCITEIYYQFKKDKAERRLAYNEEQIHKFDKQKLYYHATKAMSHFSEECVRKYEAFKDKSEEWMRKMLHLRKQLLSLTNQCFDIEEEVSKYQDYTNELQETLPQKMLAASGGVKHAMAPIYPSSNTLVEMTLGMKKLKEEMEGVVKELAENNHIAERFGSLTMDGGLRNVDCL

[2] = target: T2, Myc-tagged TBK1 M690A (murine) (UniProt Q9WUN2)
T2 sequence: T1 sequence with M690A, A711L

[3] = target: T3, Myc-tagged TBK1 N708A (murine) (UniProt Q9WUN2)
T3 sequence: T1 sequence with N708A, A711L

Measured: binding

V5-tagged NAP1 (from UniProt Q9QYP6 1-405)
binds: all assays above

V5-tagged Sintbad (from UniProt A2A9T0 1-611)
binds: all assays above
